About 10 (0.005%) of roughly 200,000 compounds were called active. Inconclusive results, whose numbers are uncertain, are shown with a selection of clear calls. Calls come from the whole dose curve; as a rule, active = well fitted inhibition curve with a large enough effect; inconclusive = small, poorly fitted or top-dose-only effect, or effect the other way, or another doubt; inactive = no such curve, though single readings can be large or run the other way. No potency is given beside an inconclusive call; the fits are too rough.
The compounds below were run against Lysosomal alpha-glucosidase (Homo sapiens) (UniProt P10253) (assay: qHTS Assay for Inhibitors of Human alpha-Glucosidase as a Potential Chaperone Treatment of Pompe Disease). Details: purified human GAA, 4-MU-alpha-glucoside fluorescence; activity change, negative = inhibition: at 76.9 µM (top of the series) unless noted.
In short: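 Human enzyme at 4 nM with 400 uM 4-methylumbelliferyl-alpha-D-pyranoside, citrate/phosphate buffer pH 5.0, 0.005% Tween-20, 20 min at room temperature. Compounds up to 77 uM. 4-MU fluorescence (Ex 365/Em 440) read after NaOH/glycine stop; AC50 from Hill fit.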
In the case of O=C1Nc2ccc([N+](=O)[O-])cc2C1=Nc1cccc(CO)c1, the “activity change, negative = inhibition” value was inactive: 7.58%. For O=C(c1ccc(N2CCN(C3CC(=O)N(Cc4cccs4)C3=O)CC2)cc1)c1cccnc1 (stereo unspecified), the Potency was inconclusive [inhibitor, single point]. In the case of Nc1cccc(Nc2nc(OC(C(F)(F)F)C(F)(F)F)nc(OC(C(F)(F)F)C(F)(F)F)n2)c1, the Potency was inconclusive [inhibitor, partial curve, poor fit]. With COCCCC1CCN(C(=O)CCc2nnc(CCCCc3ccccc3)o2)CC1 the activity change, negative = inhibition was inconclusive: 16% [activator]. For Cc1ccc(-c2[nH]ncc2/C=C(\C#N)C(=O)NC2CCCCC2)cc1, the Potency was inconclusive [inhibitor, single point]. For O=C(O)c1ccccc1N/N=C/c1c(Sc2nnnn2-c2ccccc2)nc2ccccn2c1=O, the Potency was inconclusive [inhibitor, full curve, poor fit]. For O=C(Nc1c(C(=O)C2CC2)oc2ccccc12)c1ccc(Cl)cc1, the Potency was inconclusive [activator, single point]. In the case of N#C/C(=C/c1ccc(F)cc1)C(N)=S, the Potency was inconclusive [inhibitor, single point]. For CSc1c(C#N)c(N)c(C#N)c2c1COC(C)(C)C2, the Potency was inconclusive [activator, single point]. For Cc1cccc(N2CCN(C(=O)c3ccc(CNc4c(N5CCC(C)CC5)c(=O)c4=O)cc3)CC2C)c1 (stereo unspecified), the activity change, negative = inhibition was inconclusive: -19.8% [inhibitor]. Cc1cc(C)nc(N2CCC(C(=O)N3CCN(c4cc(Cl)ccc4C)CC3)CC2)n1 was tested, and the Potency was inconclusive [inhibitor, single point]. With CCN(CC)S(=O)(=O)c1ccc(-c2nnc(SCC(C)=O)o2)cc1 the Potency was inconclusive [inhibitor, single point]. For COc1cccc(C(=O)N(Cc2cc3cc(C)ccc3[nH]c2=O)C(C)C)c1, the activity change, negative = inhibition was inconclusive: -17.9% [inhibitor]. For O=C(CCn1c2c(c3ccccc31)CCCC2)NNC(=O)c1ccccc1Cl, the Potency was inconclusive [inhibitor, single point]. In the case of Cc1ccc(-c2noc(COc3ccccc3C)n2)cc1, the activity change, negative = inhibition was inconclusive: -15.8% [inhibitor]. Cc1ccccc1OCC(=O)NC(=S)Nc1ccc(Br)c(C)n1 was tested, and the activity change, negative = inhibition was inconclusive: -15.7% [inhibitor]. For C/C(Cl)=C\Cn1c(Nc2ccc(C)cc2)nc2c1c(=O)n(C)c(=O)n2C, the activity change, negative = inhibition was inconclusive: -17.1% [inhibitor]. In the case of CN=c1scc(-c2cccs2)n1/N=C/c1ccc(O)c(O)c1O, the activity change, negative = inhibition was inconclusive: -15.4% [inhibitor]. In the case of COc1ccc(C2CC(=O)Oc3c2c(=O)n(C)c2ccccc32)c(OC)c1OC (stereo unspecified), the activity change, negative = inhibition was inconclusive: 19% [activator]. With Fc1ccc2[nH]c3c(c2c1)CN(C(=S)NCc1ccccc1)CC3 the Potency was inconclusive [inhibitor, partial curve, poor fit]. With N#C/C(=C\c1cc(Cl)ccc1O)C(=O)NC1CCCCC1 the Potency was inconclusive [inhibitor, single point]. In the case of CCOC(=O)c1cc2c(=O)n3ccccc3nc2n(Cc2ccco2)c1=NC(=O)c1ccc(OC)cc1OC, the Potency was inconclusive [activator, single point]. With N#CC1=C(N)n2c(s/c(=C\c3cccs3)c2=O)=C(C#N)C1c1cccs1 (stereo unspecified) the “activity change, negative = inhibition” value was inactive: 0.326%. In the case of COc1cc(/C=C2\N=C3CCCCCN3C2=O)ccc1O, the “activity change, negative = inhibition” value was inactive: -10.1%. For CC1(C)CC(OC(=O)c2ccccc2)CC(C)(C)N1, the Potency was inconclusive [inhibitor, single point]. Cc1nn(CCC(=O)NNC(=S)Nc2ccc(Cl)cc2)c(C)c1[N+](=O)[O-] was tested, and the Potency was inconclusive [inhibitor, single point]. In the case of CC(=O)C1=C(C)NC(SCc2cccc3ccccc23)=C(C#N)C1c1ccco1 (stereo unspecified), the Potency was inconclusive [inhibitor, single point]. In the case of CCOc1ccccc1NC(=O)c1ccc(OCC)c([N+](=O)[O-])c1, the Potency was inconclusive [inhibitor, full curve, poor fit]. With COc1cccc(NC(=S)/C(=C(\[O-])c2ccc([N+](=O)[O-])cc2)[n+]2ccccc2)c1 the Potency was inconclusive [inhibitor, single point]. In the case of O=C(O/N=C(\c1ccccc1)c1ccncc1)c1ccccc1F, the activity change, negative = inhibition was inconclusive: 17% [activator]. For COc1ccc(/C=C2\SC(=S)N(NC(=O)c3csc4c3CCCC4)C2=O)cc1, the Potency was inconclusive [inhibitor, partial curve]. With CC(C)(C)CC(=O)Nc1cc(S(=O)(=O)N2CCCCCC2)ccc1Cl the Potency was inconclusive [inhibitor, partial curve]. In the case of O=C(NC1CCCCC1)C(=S)NCCc1ccccc1, the activity change, negative = inhibition was inconclusive: -15.7% [inhibitor]. With CN(C)CCCNC(=S)NCCNc1nc2cc3c(cc2cc1C#N)OCO3 the Potency was inconclusive [activator, single point]. In the case of O=S(=O)(Nc1ccc(-c2nc3cccnc3s2)cc1)c1ccc(Cl)s1, the Potency was inconclusive [activator, single point]. CN(C)c1nc(=NCc2ccco2)ss1 was tested, and the activity change, negative = inhibition was inactive: -7.32% [at 15.4 µM]. Cc1onc(-c2ccccc2Cl)c1C(=O)NC(=S)Nc1ccccc1C(N)=O was tested, and the Potency was inconclusive [inhibitor, single point]. With C=CCSc1nnc(NC(=O)c2cccc(S(=O)(=O)N3CCOCC3)c2)s1 the Potency was inconclusive [inhibitor, partial curve]. In the case of O=C1c2cccc3cccc(c23)C(=O)N1CCc1ccccc1, the Potency was inconclusive [inhibitor, partial curve, poor fit]. With CN(C)CCNC(=O)c1cc2c(s1)-c1ccccc1OC2 the Potency was inconclusive [activator, partial curve]. With Cc1ccc(/C(N)=N/OC(=O)Cc2cccc3ccccc23)cc1 the “activity change, negative = inhibition” value was inactive: -0.786%. O=C(c1ccccc1)N1CCN(CC2CC=CCC2)CC1 (stereo unspecified) was tested, and the Potency was inconclusive [inhibitor, single point]. For S=C(NC1CCCCC1)N1CCN(c2ccccn2)CC1, the activity change, negative = inhibition was inconclusive: -17.1% [inhibitor]. COc1ccnc(N2CCN(c3ccccc3)CC2)c1C#N was tested, and the activity change, negative = inhibition was inconclusive: -17.1% [inhibitor]. COc1ccccc1CN=C1NC(=O)C(CC(=O)Nc2ccc(OC)c(OC)c2)S1 (stereo unspecified) was tested, and the Potency was inconclusive [inhibitor, single point]. With Cc1ccccc1-n1c(C)cc(/C=C(\C#N)C(=O)NCC2CCCO2)c1C (stereo unspecified) the Potency was inconclusive [inhibitor, single point]. In the case of COc1ccc(-c2nn(CC(=O)Nc3ccc(Cl)c(Cl)c3)c(=O)c3ccccc23)cc1, the “activity change, negative = inhibition” value was inactive: -4.63%. For COc1ccc(/C=C/C(=O)c2cc(F)ccc2OC(=O)c2ccc(OC)c(OC)c2)cc1OC, the Potency was inconclusive [inhibitor, single point]. With N#CC1(C#N)C(c2ccccc2)OC23CCCCCC2C1(C#N)C(=N)O3 (stereo unspecified) the activity change, negative = inhibition was inconclusive: 156% [activator]. With Cc1ccc(/C=N/NC(=O)c2sccc2OCc2ccc(F)cc2)cc1 the Potency was inconclusive [inhibitor, partial curve]. With Cc1ccc(Nc2nc(-c3c(C)nc4ccccn34)cs2)cc1 the “activity change, negative = inhibition” value was inactive: -7.2%. In the case of Cn1c(-c2ccc(F)cc2)cnc1NCc1ccc(C#N)cc1, the “activity change, negative = inhibition” value was inactive: 1.1%. Cc1ccc(NC(=O)/C(=C/C=C/c2ccccc2)NC(=O)c2ccccc2)cc1 was tested, and the Potency was inconclusive [inhibitor, single point]. For COC(=O)C(NC(=O)c1ccc(C)cc1)(Nc1cccc(C)n1)C(F)(F)F (stereo unspecified), the Potency was inconclusive [inhibitor, single point]. O=C(CCc1nnc(CCCCc2ccccc2)o1)NCCCc1cccnc1 was tested, and the activity change, negative = inhibition was inconclusive: 13.3% [activator]. For CCOCC(=O)Nc1cc(-c2cn3cccnc3n2)ccc1C, the Potency was inconclusive [activator, partial curve]. Cc1cnc(NC(=O)CSc2nnc(C)s2)s1 was tested, and the Potency was inconclusive [inhibitor, single point]. In the case of COc1cccc(CNC(=O)CCC2CCCN(Cc3cc4ccccc4o3)C2)c1 (stereo unspecified), the activity change, negative = inhibition was inconclusive: 15.5% [activator]. In the case of CC(=O)OC(C)(CCC(C)(OC(C)=O)C(C)=O)C(C)=O (stereo unspecified), the Potency was inconclusive [inhibitor, single point]. CC(C)(C)C(=O)Nc1ccc(-c2nc3ccccc3c(=O)o2)cc1 was tested, and the activity change, negative = inhibition was inconclusive: 23.5% [activator]. For CCOC(=O)C(=O)NNc1cccc(C)c1C, the Potency was inconclusive [inhibitor, partial curve, poor fit]. With COc1cc(NC(=S)NC(=O)CC(C)C)ccc1NC(=O)c1cc2ccccc2o1 the Potency was inconclusive [activator, single point]. For Cc1ccc(OP(=O)(Nc2c(C)n(C)n(-c3ccccc3)c2=O)Oc2ccc(C)cc2)cc1, the activity change, negative = inhibition was inconclusive: -18.8% [inhibitor]. In the case of NC(=O)Nc1cccc2ccccc12, the Potency was inconclusive [inhibitor, full curve, poor fit]. In the case of CCN(CC)c1ccc(/C=C(/C#N)C(=O)NC(C)C)o1, the activity change, negative = inhibition was inconclusive: 2.7% [activator]. CCC(=O)N1CCc2cc(Br)cc(S(=O)(=O)CC(=O)OC)c21 was tested, and the Potency was inconclusive [inhibitor, partial curve].

Source: PubChem BioAssay AID1466 (National Center for Advancing Translational Sciences (NCATS), 2008)
Potency is the fitted concentration of half-maximal effect; tags give direction and shape of the fitted curve.
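Throughout, for activity change, negative = inhibition: plate controls were uninhibited enzyme wells for no effect and no-enzyme background for full effect.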
